# Assay results reported in PubChem BioAssay AID493208 (National Center for Advancing Translational Sciences (NCATS), 2011).
# Among all 44,000 compounds or so, about 340 (0.77%) were called active. Roughly 5% stayed inconclusive and do not appear here. Calls follow the shape of the dose curve; as a rule, active = well fitted inhibition curve with a large enough effect; inconclusive = small, poorly fitted or top-dose-only effect; inactive = flat fitted curve, though single readings scatter. Some of the results follow.
# Experiment: Acumen qHTS Assay for Inhibitors of the mTORC1 Signaling Pathway in MEF (Tsc2-/-, p53-/-) Cells: Sytravon; also: nearly all actives have a fitted effect of over 50% in size;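 as to activity change, negative = inhibition: plate controls were DMSO for no effect and rapamycin for full effect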
# Settings: phospho-rpS6 immunofluorescence/PI, 24 h; series mostly up to 38.3 µM; activity change, negative = inhibition: at the top concentration
# Source text: NIH Molecular Libraries Probe Production Centers Network [MLPCN] NIH Chemical Genomics Center [NCGC] MLPCN Grant: NS059428-01 Assay Submitter (PI): Blenis, John; Hoffman, Greg; Harvard University NCGC Assay Overview: The mammalian target of rapamycin (mTOR) is an intracellular serine/threonine kinase Aberrant regulation of mTOR signaling plays a causative role in a number of human diseases, including cancer, benign tumors such as lymphangioleiomyomatosis (LAM) and Tuberous Sclerosis Complex (TSC), and metabolic diseases such as diabetes and obesity. This project aims to identify inhibitors of ribosomal protein S6 (rpS6) phosphorylation. The phosphorylation of rpS6 is a key event downstream of mTOR activation. The assay uses a phospho-specific antibody of phospho-rpS6 to detect inhibitors of mTOR activation. Mutations in the Tsc1 and Tsc2 genes are the underlying genetic lesions responsible for TSC, causing constitutive activation of the mTORC1 pathway and leading to profound effects on cell metabolism. Aberrant metabolism in cancer has recently received significant attention as a target to develop therapeutic agents in the treatment of cancer.1 As Tsc2-/- cells have lost the ability to respond to energy and growth factor deprivation, these cells are unable to properly down regulate cellular biosynthetic processes in response to metabolic stress, and are thus extremely sensitive to glucose deprivation-induced death.2 A central goal of this project is to explore the unique cell survival and metabolic properties of cells with Tsc1 or Tsc2 by screening for compounds that selectively target the Tsc2-/- MEFs by screening both Tsc2-/- and WT MEF cell lines. We hope to better understand these aspects of TSC physiology in order to exploit them for therapeutic benefit.
# NCGC Acumen Assay Protocol Summary: For quantitative high throughput analysis of mTORC1 signaling, we developed a cell-based assay for immuno-fluorescence based detection of rpS6 phosphorylation on the Acumen Explorer that will be used a platform for the primary small molecule screen. Mouse embryonic fibroblasts (MEFs) are cultured in 1536-well plates using DMEM + 10% FBS. Twenty-four hrs after plating, test compounds (solubilized in DMSO) are delivered and incubated with the cells for 24 hrs at 37 degree Celsius. Following the incubation, media with compound is aspirated and the cells are fixed in 4% paraformaldehyde (PFA) containing PBS + 0.2% TX-100. Next, PFA is aspirated, cells are washed two times with PBS plus 0.2% TX-100 and the cells are blocked for 1 hr at room temperature (blocking buffer: LiCOR Blocking Buffer plus 0.2% TX-100). […] Cells are washed two times with PBS plus 0.2% TX-100, and stained with 10 uM propidium iodide (PI) for 20-25 minutes for cell number measurement (1:500 dilution of Hoescht staining is also added for IN Cell imaging). The plates are scanned on the Acumen Explorer laser scanning instrument (TTP Labtech) using the 488nm laser for simultaneous excitation of the Alexa-488 and PI. […] The normalized phospho-S6 staining is calculated as the ratio of the integrated Alexa 488 intensity divided by the integrated PI intensity for the single concentration rapamycin control (7.5 nM) and DMSO columns. […] Inhibition of the pathway is defined based on the normalized phospho-S6 intensity in rapamycin treated cells. Active cells are defined as those with a normalized phospho-S6 staining above this threshold, and each treatment is reported as the % positive cells in the well, where thresholds are defined by selecting wells with the highest and lowest signal and differentiating between the % non-active and % active populations. In addition to the pathway specific phospho-S6 endpoint, the number of PI stained cells from the Acumen is recorded as a measure of cell viability. The primary screen was performed with a MEF cell line in a defined genetic background, Tsc2-/-, p53-/- cell line stably transfected with an empty vector control (Tsc2-/- MEF).
# Potency is read from the fitted curve at half-maximal effect.
Compound,"activity change, negative = inhibition",Potency
COc1ccc(C(=O)c2oc3ccccc3c2NC(=O)c2nc(SC)ncc2Cl)cc1Cl,inactive: -1.28%,–
CCOC(=O)N1CCc2c(sc(NCc3cccs3)c2C(=O)Nc2cc(OC)ccc2OC)C1,inactive: 2.45%,–
CCOC(=O)c1nnn(C(CC)C(=O)Nc2c(C)cccc2C)c1C(=O)OCC (stereo not given),inactive: 3.85%,–
CC(C)c1ccc(Nc2cc(C(=O)NCc3cccs3)c3ccccc3n2)cc1,inactive: -18.5%,–
CCN(CC)C(=O)CSc1nnc2[nH]c(=O)cc(C)n12,inactive: -4.31%,–
Cc1ccc(NC(=O)N2CCN(c3nnc(C)c4c(C)n(-c5ccccc5)nc34)CC2)c(Cl)c1,inactive: -11.7%,–
CCOc1ccc(-c2cccc(NS(=O)(=O)c3ccc(Cl)s3)c2)nn1,inactive: -1.75%,–
CCc1ccccc1NC(=O)CCCN1C(=O)COc2ccc(C)cc21,inactive: -2.23%,–
CCNc1nc(Oc2ccc(OCC(=O)OC)nn2)nc(N2CCOCC2)n1,inactive: -11.5%,–
CCOc1ccc2nc(N3CCCC(C(=O)NCc4ccc(OC)cc4)C3)sc2c1 (stereo not given),inactive: -0.41%,–
Cc1cccc(OCC(=O)N(Cc2cccc(Cl)c2)Cc2ccco2)c1C,inactive: -0.709%,–
CC(C)S(=O)(=O)c1oc(-c2ccc(F)cc2)nc1S(=O)(=O)c1ccc(F)cc1,–,active: 521 nM
COc1ccc2cc(-c3cn4c(n3)sc3cc(F)ccc34)c(=O)oc2c1,inactive: 0.349%,–
COc1ccc(/C=C/c2onc(C)c2S(=O)(=O)N2CCC(C(=O)N3CCC(C)CC3)CC2)cc1,inactive: -6.18%,–
Cc1ccccc1CSc1nc(-c2ccccc2)nc2c1Cc1c(CO)cnc(C)c1O2,inactive: -3%,–
CC(C)CCNC(=O)N1CCN(S(=O)(=O)c2ccc3c(ccn3C)c2)CC1,inactive: -13.1%,–
CCOC(=O)c1c(S(=O)(=O)N2CCCC(C(=O)Nc3cc(C)ccc3OC)C2)c(C)n(C)c1C (stereo not given),inactive: -5.06%,–
CCCCNC(=O)CCn1c(=O)c2ccccc2n(Cc2cc(C)ccc2C)c1=O,inactive: 2.94%,–
COc1cccc(C2=NN(C(C)=O)C(c3cn(-c4ccccc4)nc3-c3cccs3)C2)c1 (stereo not given),inactive: -2.83%,–
CCOc1ccc(CCNC(=O)CCc2cn(Cc3ccc(C)cc3)c3ccccc23)cc1,inactive: -14.7%,–

Compound,"activity change, negative = inhibition",Potency
CC1CCN(S(=O)(=O)c2ccc3c(c2)N(CC(=O)N2CCN(c4ccc(Cl)cc4)CC2)C(=O)CO3)CC1,inactive: -19.6%,–
Cc1ccc(C)c(N2CCN(C(=O)c3cc(S(=O)(=O)N4CCCCC4)cn3C)CC2)c1,inactive: 1.97%,–
COc1ccc2[nH]cc(CCNC(=O)Nc3ccc(F)cc3)c2c1,inactive: 0.0602%,–
O=C(c1ccc(CSc2nc3ccncc3n2Cc2ccccc2F)cc1)N1CCCCCC1,inactive: -7.4%,–
CCCC(=O)Nc1nnc(SCc2cc(=O)c3cc(C)ccc3[nH]2)s1,inactive: -1.31%,–
O=C(Cn1ncc2c3ccccc3n(Cc3ccc(Cl)cc3)c2c1=O)NCCCc1ccccc1,inactive: -1.48%,–
COc1ccc(Nc2oc(-c3ccc(COc4ccc(OC)cc4)o3)nc2C#N)cc1,inactive: -6%,–
CC(C)c1ccc(Nc2cc(C(=O)NCCc3ccccc3)c3ccccc3n2)cc1,inactive: -6.73%,–
CCc1ccccc1N1CC(c2nc3ccccc3n2CC(C)C)CC1=O (stereo not given),inactive: -9.47%,–
CCC(C)NC(=O)C1CCN(C(=O)c2cc3sccc3n2Cc2ccc(Cl)cc2)CC1 (stereo not given),inactive: -0.319%,–
Cc1ccc(C)c(S(=O)(=O)c2nnn3c2nc(N2CCCC2)c2sccc23)c1,inactive: -6.88%,–
CCCCN(CC)c1ncnc2c1sc1nc(N3CCOCC3)c3c(c12)CCCC3,inactive: -9.32%,–
CCC(=O)Nc1ccccc1-c1nc2ccccc2n(C(CC)C(=O)Nc2cccc(C(C)=O)c2)c1=O (stereo not given),inactive: -0.862%,–
CCCCN(CC)CCCn1cnc2c([nH]c3ccc(Cl)cc32)c1=O,inactive: -0.44%,–
CC(C)(C)C1CCc2nc(NC(=O)COc3ccc(F)cc3)sc2C1 (stereo not given),inactive: -12.8%,–
CC(=O)Nc1ccc(-n2cc3c(c2-c2ccc(C)cc2)c(=O)n(C)c(=O)n3C)cc1,inactive: 7.63%,–
CC(C)(C)c1ccc(OCCSc2nc(-c3cccs3)nc3cc(=O)[nH]n23)cc1,inactive: 3.16%,–
Cc1oc(-c2ccc(C(=O)Nc3ccc(F)cc3F)cc2)nc1COc1ccccc1,inactive: -8.22%,–
Cn1c(SCC(=O)Nc2ccc(F)cc2)nc2c([nH]c3ccccc32)c1=O,inactive: -3.03%,–
COc1cccc(-c2cc(C(=O)NCc3ccccc3)[nH]n2)c1,inactive: -0.154%,–

Compound,"activity change, negative = inhibition",Potency
CN(C)C(=O)c1ccc2c(c1)N(CC(=O)NCc1ccc(F)cc1)C(=O)C1CCCCN21 (stereo not given),inactive: -2.2%,–
Cn1cc(C(=O)O)c(=O)c2cc(S(=O)(=O)N3CCCCC3)ccc21,inactive: 1.55%,–
Cc1ccc(CN2C(=O)c3ccccc3S(=O)(=O)c3ccc(C(=O)OCC4CCCO4)cc32)cc1 (stereo not given),inactive: -6.4%,–
Cc1ccc(NC(=O)C(Cc2ccccc2)NS(=O)(=O)c2ccc3c(c2)c(=O)n(C)c(=O)n3C)cc1 (stereo not given),inactive: 1.36%,–
CCN(C(=O)c1cc(S(=O)(=O)N2CCOCC2)cn1C)c1ccc(OC)cc1,inactive: 11.5%,–
CCCC(=O)Oc1c(Sc2ccc(Cl)cc2)c(C)nn1-c1ccccc1,inactive: 0.798%,–
CCOc1nc(NC(=O)NS(=O)(=O)Oc2ccc(Cl)cc2)nc(-c2ccccc2)n1,inactive: 1.41%,–
Cc1cccn2c(=O)c3cc(C(=O)NCCc4ccc(S(N)(=O)=O)cc4)n(C)c3nc12,inactive: 9.31%,–
COc1ccc(CCNC(=O)CCn2c(=O)c3ccccc3n(CC(=O)Nc3cccc(C)c3)c2=O)cc1OC,inactive: 1.62%,–
CC(=O)c1ccc(NC(=O)Cn2c(-n3nc(C)cc3C)nc(C)cc2=O)cc1,inactive: -21.2%,–
COc1cc(OC)cc(-c2nnc(SCC(=O)N3CCC(C)CC3)o2)c1,inactive: -11.6%,–
Cc1ccc2c(c1)cc1c(=O)n(CC(=O)NCc3ccco3)nc(C)n12,inactive: 0.857%,–
COc1cccc(-n2cc(C(=O)Oc3ccc(F)cc3)c3ccccc3c2=O)c1,inactive: -3.12%,–
Cc1nn2c(=O)cc(COC(=O)c3ccccc3NC(=O)C(C)C)nc2s1,inactive: 23%,–
COc1cc(C(=O)Nc2cccc(OCc3cc(=O)n4c(C)csc4n3)c2)cc(OC)c1OC,inactive: -1.22%,–
Cc1noc2ncnc(N3CCCC(C(=O)NCCC(C)C)C3)c12 (stereo not given),inactive: -13.3%,–
COc1ccc(S(=O)(=O)N2CCC(c3nnc(-c4ccccc4C)o3)CC2)c(OC)c1,inactive: -23.5%,–
Cc1ccc(S(=O)(=O)c2c(Nc3ccccc3)sc(C(=O)c3ccc4c(c3)OCO4)c2N)cc1,inactive: -11.9%,–
COc1ccc(-c2nc(SCC(=O)NCC3CCCO3)c(-c3ccc(Cl)cc3)[nH]2)cc1 (stereo not given),inactive: -0.912%,–
Cc1c(Cl)ccc2sc(NC(=O)c3ccc(S(=O)(=O)N4CCCC4)cc3)nc12,inactive: 0.635%,–
